# Measured values taken from PMC10726135.
# Some of the results follow. At the low end of the ranking the order means little. The protein was read in a cell extract, so binding may be indirect.
# Target: T1, HNF4alpha2 (COS-7 nuclear extract) (UniProt P41235)
# T1 sequence: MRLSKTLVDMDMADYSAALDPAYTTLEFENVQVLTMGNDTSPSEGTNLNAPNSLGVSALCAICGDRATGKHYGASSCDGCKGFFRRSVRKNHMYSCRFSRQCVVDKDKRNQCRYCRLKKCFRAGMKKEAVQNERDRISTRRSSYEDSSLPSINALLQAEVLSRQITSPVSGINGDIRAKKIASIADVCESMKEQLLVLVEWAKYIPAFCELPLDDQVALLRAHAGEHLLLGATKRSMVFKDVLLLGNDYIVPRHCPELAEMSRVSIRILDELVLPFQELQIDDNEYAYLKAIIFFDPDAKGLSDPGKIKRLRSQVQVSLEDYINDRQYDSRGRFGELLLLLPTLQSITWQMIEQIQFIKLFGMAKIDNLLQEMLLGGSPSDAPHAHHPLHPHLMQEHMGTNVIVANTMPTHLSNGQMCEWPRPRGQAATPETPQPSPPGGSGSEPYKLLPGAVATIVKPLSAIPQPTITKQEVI
# Test: protein-binding microarray
# Conditions: COS-7 nuclear extract on double-stranded Agilent 4x180k PBM; binding buffer, salt, pH and temperature not given; high values mean tight binding; double strand, one strand shown; sequences stand for … in …GCCTAGGGAGATTAGAGTATCGGTCGA
row,Sequence,binding signal (log2 normalized intensity)
1,TTTCAAAGACAAATATCGACAAGCCAGATC,-1.2
2,TGTTTCTGGAGAATGCTGTCCTGCCAGTTG,0.812
3,CAGCAAGCATTAATCCCTGAGCCTGGACCT,1.98
4,CTTCCCATAAAACCTAGACAGAAGCTTTCT,-1.13
5,GGGGAATAAAGAACGCTCACAGAAAGAAGA,-1.13
6,AGGATTTACTTATACAGCGTCTAAGAAGAT,-1.13
7,CCAGTGGACTCTCTGTTTGATCAGCTGGTC,1.66
8,AAACAGGTTCTTCCACGACTCCCCCGCTCA,3.17
9,CTGCATTCCTCCTGGCCTCTCTGAGCAGCC,-1.2
10,CTTTCCACCCTGTTGCACAAGCTGTGTGGC,0.784
11,GCATTTTGCAGACCTTGGTCAAAGTGACAC,1.79
12,GGCCTGTGCTGGGGACAAAAGCTGAGTCCC,-1.12
13,CTTGAGCACTAAAGAGGCTACCAGACCTTG,-1.09
14,GGGCATAGCAGATAAGCATTGTGTGTGTTG,2.19
15,TGGGGGAAATTCTCAAAAGTTTTTCCCTTC,0.685
16,TCCAGAAGGTCAGGACCACACATTCCATTA,-1.11
17,CACACGGTGTCCAGATTCCAGCCTCCTGCT,-1.11
18,GCAGTGGCGCAATCTCAGCTCAATCTCTGT,-1.18
19,ACCTGACTAAAACCTGCTGCAGGAGAGATG,-1.13
20,GGAGTTAGGGAAAAGATAAGGCGTAGTTCA,0.477
21,GGAATGCAGTGACATGATCAAAGTTCATTG,4.07
22,CTTGTCCAGGGACTTTGAACACTTCTTTGT,3.55
23,TAGTTTTGTAACTTAAAGATCATGTTTGAG,1.58
24,TCTATCTCCCTGTGACCTCCAACTATTGCT,0.84

row,Sequence,binding signal (log2 normalized intensity)
1,GAACTTTGACTTATTTAGTAGTGGCAAGAG,2.7
2,CACAGCACTGTTTATTTTGTGTGATACTCA,1.54
3,GTCCAAGTCCAAAGGTCTGAGAACCAAGAG,3.21
4,TCGGCTCCATCTAGCAGCCCCAACCCACTG,2.95
5,AGTTCAGGCCTCGGCTTCATTAGCAAATAA,-1.12
6,TTCTGGCAAAGCCAATCTGCTTAAAGGCAA,-1.24
7,GGGAAAAGATAAGATTATCTCGTCACCTTT,0.962
8,TCTCTGGTCGGGGAGGTGTTTATCTTGTGG,1.75
9,TCCTACTGACCTCCGACCCCACGGACTTAA,4.05
10,ATTCCTTCAGGAAGGCCTGTTAAAAACACG,-1.15
11,CAGGACCAGGTGTAGATAAACTGGAAAGGG,-1.08
12,CATGAGAAACATGACACCCATCATGAGTAG,-1.03
13,AAGAAAAACAAGTGGAGTAGGATTTCTAGT,-1.06
14,TATCTAGGGTCAAAGGGTCAAGTTCAGATC,5.2
15,CCTGAGATGTCTGCTTCTTGGGTCAAAGTC,2.87
16,TATGCTCTCTCTCCACCTGGAGGGACTTTG,2.59
17,TGGTCCAAGGTACATGTCTCTGCTCCTAAA,1.08
18,GGCCTTTGGACCCAGACTGAATCACACTAC,3.76
19,CCCCTACACAGAGGAGCGACCCAGGCAGCC,-1.16
20,TTCTTTTAGTGTGCTCTGGGTCTGTCCTTT,2.84
21,AACTGTACTTTGGACTGGGGACCTGGTCTG,4.13
22,GGGTGGGGTTGGAGTCCAGAGTTCAGGTAG,2.87
23,GCATATCTAGAGTCTGACTACTTCTCACCA,-0.102
24,TACTGAGAGGCCAGCTAAAACTGCAGATTG,-1.04

row,Sequence,binding signal (log2 normalized intensity)
1,AAACTCTGAAAGCACTAAGTTACCTCATCT,-1.12
2,AGTTCAGTCTTTATTGGTACGTTCCAATAT,1.57
3,CTTTGACCTTACCAGCCCACTCTTAGCAGA,-1.18
4,TTGGGTGAGTGTTAGAGCACCCTCTGGAGG,-1.21
5,AAGTGCATACTCAAAGAATTTAACACCAGA,-0.831
6,ACAGGGCAAAGGTGCCAGGTAATTCAAAGC,-1.12
7,AAGCAGGTTCACATTTTTGTCATCTTCACT,0.599
8,ATGAGCTAGAGCTCGTGTCATCTCTGGCTA,-1.26
9,CAGACTAGTATTGAGTTTGCTCTGCTACTA,-1.06
10,GATGTGTGAAGGACACAGAATGACTTTCAG,-0.81
11,GAAAGTCTTGATAAGAAACCCAAGATTTGG,-1.02
12,TGTCAAAATCTGATCTTTCCTCTAAGTGCC,0.598
13,CATGCTCCCCACCCCCAACTTCCCCAACCC,6.67
14,GATCCACGGAGAATGTAGACCTTTACCACC,1.74
15,GCAGAGTGTCCCATATCACATTTTAAGGTC,1.97
16,CTCTGTGATAGCCTTTTACCTTGGCAGCCA,-0.515
17,GATACCTTCCTGAATGCCTAGGTGACAAGG,0.182
18,GGTGAGGGTGGGCCTGGGGGGAGACAACTG,-1.22
19,GGTTAAGCCACCAAAAAGTAAATAGCCCCA,3.15
20,TTGACCTTCGAACCCTTGCCATTTACATCA,5.38
21,TTCTGCGGAAATAATTGATTCAGGTGAGCC,0.333
22,CTATGCCCTTTGAAATTCTGGACTTTCAAC,4.93
23,CCAGCTCTTTACTCAGGTCATCAGGACTCT,1.11
24,CTTTGACCTTTCCATAGTTCCGAGTTCCCT,1.18
